Some of the results follow. Sequences were assembled here from the parent chain. Inactive controls read about 0.05.
B1: TEV protease; numbered along this chain (parent)
chain: MGESLFKGPRDYNPISSSICHLTNESDGHTTSLYGIGFGPFIITNKHLFRRNNGTLVVQSLHGVFKVKDTTTLQQHLVDGRDMIIIRMPKDFPPFPQKLKFREPQREERICLVTTNFQTKSMSSMVSDTSCTFPSGDGIFWKHWIQTKDGQCGSPLVSTRDGFIVGIHSASNFTNTNNYFTSVPKNFMELLTNQEAQQWVSGWRLNADSVLWGGHKVFMVKPEEPFQPVKEATQL

Variants of: B1
Assay: raw area under fraction-flipped curve 0-4 h after induction (AUC4h, not background-subtracted), DNA-recorder readout of cleavage of the substrate (dimensionless); higher = more cleavage of the substrate by the protease variant
Conditions: temperature: 34 °C; time window: 0-4 h after rhamnose induction
Description: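 In vivo DNA recorder in E. coli TOP10(DE3) ΔrhaA at 34 °C. Each TEVp single-site mutant (parent TEVp 0) is paired with a single-site variant of the 7-mer TEVs (canonical ENLYFQ|S). The substrate sits between flexible linkers in a Bxb1-sfGFP-TEVs-SsrA fusion, so cleavage stabilises Bxb1 and speeds flipping of a recombination array, read by NGS. The value is the raw area under the fraction-flipped curve over 0-4 h after rhamnose induction (AUC4h), with ≥20 reads per time point. It is not background-subtracted; inactive controls average about 0.047.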
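Further: Bxb1 expression induced with 0.2% (w/v) L-rhamnose at OD600 near 0.5, cultures sampled hourly, flipped fraction per protease–substrate barcode pair counted by paired-end Illumina sequencing.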

Row | Variant | area with substrate ENLYFQA | area with substrate ENLYFQC | area with substrate ENLYFQF | area with substrate ENLYFQH | area with substrate ENLYFQI | area with substrate ENLYFQK | area with substrate ENLYFQL | area with substrate ENLYFQM | area with substrate ENLYFQR | area with substrate ENLYFQS | area with substrate ENLYFQY | area with substrate ENLYFQG | area with substrate ENLYFQN | area with substrate ENLYFQQ | area with substrate ENLYFQT | area with substrate ENLYFQP | area with substrate ENLYFQV | area with substrate ENLYFQW | area with substrate ENLYFQD | area with substrate ENLYFQE
1 | Q146A | 0.138 | 0.12 | 0.0786 | 0.109 | 0.0563 | 0.0567 | 0.0545 | 0.0953 | 0.048 | 0.107 | 0.0638 |  |  |  |  |  |  |  |  | 
2 | Q197A | 0.0975 | 0.0947 |  | 0.0732 | 0.0325 | 0.0714 | 0.062 |  | 0.0621 | 0.092 |  | 0.0996 | 0.0711 | 0.0714 | 0.0573 |  |  |  |  | 
3 | E189F | 0.0781 | 0.104 | 0.0753 |  | 0.0519 | 0.0698 | 0.0771 |  | 0.0987 | 0.099 | 0.0845 | 0.0907 | 0.0791 | 0.0617 | 0.0642 | 0.0626 | 0.0483 |  |  | 
4 | S124N | 0.0992 | 0.112 | 0.0798 | 0.067 | 0.0699 |  | 0.055 | 0.0825 | 0.0614 | 0.0926 |  | 0.123 |  |  | 0.0418 | 0.061 |  | 0.0602 |  | 
5 | V183Q | 0.0486 |  |  |  |  | 0.056 | 0.049 | 0.0478 | 0.0541 | 0.0611 |  | 0.0398 | 0.0492 |  | 0.0699 |  | 0.0489 | 0.0389 | 0.0765 | 
6 | F133I | 0.109 | 0.126 | 0.0904 |  |  |  |  | 0.0727 | 0.0517 | 0.106 |  | 0.112 |  |  |  | 0.0391 | 0.063 |  | 0.0827 | 0.0556
7 | F133H | 0.101 |  |  |  |  |  | 0.0608 | 0.0909 | 0.0787 | 0.111 |  | 0.0936 |  |  | 0.0751 | 0.0578 |  | 0.0977 |  | 
8 | F133A | 0.101 | 0.125 | 0.0758 |  |  |  | 0.0609 | 0.0877 | 0.0672 | 0.103 |  |  | 0.0756 |  | 0.0668 | 0.0764 | 0.0589 | 0.0977 |  | 
9 | S158P | 0.0508 | 0.0513 |  |  | 0.0451 | 0.0519 | 0.0309 | 0.0628 | 0.0549 | 0.0512 | 0.0542 | 0.0652 | 0.0453 | 0.0592 | 0.0553 | 0.0373 | 0.0555 | 0.0769 | 0.0443 | 
10 | K148H | 0.0744 | 0.0977 | 0.0686 | 0.0846 | 0.0525 | 0.0756 | 0.0924 |  |  | 0.0827 | 0.0729 | 0.0945 | 0.068 |  | 0.0593 |  |  | 0.035 |  | 
11 | L191E | 0.0593 | 0.064 |  | 0.0586 | 0.0469 | 0.0485 | 0.0563 | 0.0659 | 0.0583 | 0.0599 |  |  | 0.0572 |  |  |  | 0.0939 | 0.0546 |  | 
12 | T159D | 0.102 |  |  |  |  |  |  |  |  | 0.102 |  |  |  |  | 0.0756 | 0.0743 |  |  |  | 
13 | T159S | 0.127 | 0.115 |  | 0.0864 |  |  | 0.0668 | 0.0903 | 0.064 | 0.0989 |  | 0.115 | 0.0906 |  |  |  | 0.0509 |  |  | 0.0724
14 | T159N | 0.0654 |  |  |  | 0.0246 |  |  |  | 0.064 | 0.104 |  | 0.108 |  | 0.0828 | 0.0706 | 0.053 |  | 0.0603 |  | 
15 | I167C | 0.101 | 0.105 |  | 0.0653 | 0.0562 | 0.0583 |  | 0.0651 | 0.0521 | 0.0843 |  | 0.0949 | 0.0528 |  | 0.0468 | 0.0445 | 0.053 |  |  | 
16 | S127W | 0.133 | 0.118 | 0.0715 |  |  | 0.0665 | 0.066 | 0.123 | 0.0501 | 0.112 |  |  | 0.0694 |  | 0.0577 | 0.0654 | 0.0649 | 0.0602 |  | 0.0627
17 | G162I | 0.072 |  |  |  |  |  | 0.0441 |  | 0.0563 | 0.0693 |  |  | 0.0514 |  |  |  |  |  |  | 
18 | A170H | 0.0541 | 0.0586 |  |  | 0.0537 |  | 0.0391 | 0.0666 | 0.0673 | 0.0595 |  |  | 0.0817 |  | 0.061 |  |  |  |  | 
19 | S135C | 0.0739 | 0.074 |  | 0.072 | 0.059 | 0.0489 | 0.0587 | 0.0606 | 0.0629 | 0.0796 | 0.0505 | 0.077 |  | 0.0614 | 0.0581 | 0.0612 | 0.0589 | 0.0573 |  | 0.0669
20 | S135W | 0.0666 | 0.0624 | 0.0518 | 0.0655 | 0.0599 |  | 0.0498 | 0.0621 | 0.0572 | 0.0641 |  | 0.0419 | 0.0533 |  | 0.0449 |  | 0.059 | 0.0453 |  | 
21 | K142A | 0.0815 | 0.103 |  | 0.0734 |  | 0.0263 |  | 0.0842 |  | 0.0878 |  | 0.102 | 0.0681 | 0.0837 |  | 0.0586 |  | 0.0726 |  | 
22 | T147K | 0.0479 | 0.0567 |  |  |  |  | 0.0622 | 0.0624 | 0.0731 | 0.0591 | 0.0674 |  |  |  | 0.0588 |  |  |  | 0.0389 | 
23 | T147A | 0.0902 | 0.11 |  |  | 0.056 | 0.0669 | 0.0536 |  | 0.0728 | 0.0851 | 0.0783 | 0.0623 | 0.0373 |  | 0.0739 | 0.0614 | 0.0495 | 0.0642 |  | 0.0704
24 | N186D | 0.0973 | 0.129 |  |  | 0.0493 | 0.0666 | 0.0583 | 0.127 | 0.0596 | 0.098 | 0.0745 | 0.121 | 0.0694 | 0.0575 |  | 0.067 | 0.0441 | 0.0861 |  | 
25 | F140N | 0.0594 | 0.0605 | 0.0675 | 0.0555 | 0.0584 | 0.0665 | 0.0644 | 0.0816 | 0.0537 | 0.0599 |  |  | 0.0512 | 0.0718 |  | 0.0503 | 0.0678 | 0.0532 |  | 
26 | F140Q | 0.0675 |  |  | 0.0749 |  | 0.0596 |  |  |  | 0.0591 | 0.0646 |  |  |  |  |  |  |  |  | 
27 | V157Q | 0.0706 | 0.0756 | 0.0585 |  | 0.0545 | 0.0494 |  |  |  | 0.0783 |  | 0.0735 |  | 0.041 | 0.074 |  |  | 0.0573 |  | 0.052
28 | C131V | 0.0839 |  |  |  |  |  | 0.0532 |  | 0.0577 | 0.102 |  |  |  |  |  |  |  |  |  | 0.0691
29 | F173N | 0.093 |  |  |  |  | 0.0623 | 0.0623 | 0.0612 | 0.0586 | 0.0853 |  | 0.0959 |  |  | 0.0654 | 0.0511 | 0.0549 |  | 0.0431 | 
30 | F173C | 0.137 | 0.116 | 0.0588 |  | 0.059 |  |  | 0.0672 | 0.0581 | 0.089 | 0.0499 | 0.0306 | 0.0572 |  | 0.0614 |  |  | 0.0613 |  | 

From the supplement of paper PMC12217912
